Some of the results follow. At the low end of the ranking the order means little.

The text below walks through data of PMC6212790.

This test addresses T1, GST-Rok (full length) (UniProt O34857).
T1 sequence: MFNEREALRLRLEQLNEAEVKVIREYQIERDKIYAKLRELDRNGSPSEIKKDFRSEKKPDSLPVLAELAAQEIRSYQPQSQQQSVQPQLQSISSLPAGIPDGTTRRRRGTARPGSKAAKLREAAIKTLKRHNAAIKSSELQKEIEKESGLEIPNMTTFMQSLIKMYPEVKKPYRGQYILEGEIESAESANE
Kind of test: protein binding microarray.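 Note: rank score from −0.5 (least bound) to 0.5 (best bound).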 To be noted: Rok is a gene silencer of Bacillus subtilis; high values mean tight binding; most listed sequences are background and not binding sites; double strand, one strand shown.
Sequence GAGGTCAA showed a binding signal of -0.102 E-score.
Next, AAACCAAC: 0.0496 E-score; CTCAACAC: 0.0075 E-score; CCAAGAGG: -0.238 E-score.
Consider CCCATTCA, for which the binding signal was -0.194 E-score.
Consider AGCTGACT, for which the binding signal was -0.0126 E-score.
For CGACATAG the value was -0.0763 E-score.
For ACTGTCAT the value was 0.0522 E-score; for CAGTCCGG, -0.216 E-score.
Next, CCCAATCA: -0.253 E-score; AGCATGAA: 0.165 E-score.
Take GGCTATAA: the binding signal was determined as 0.0645 E-score.
On to AATCAGTC, for which the binding signal was -0.0113 E-score.
Next, CACCGGTC: -0.285 E-score.
Next, CGAAATCG: 0.0939 E-score.
For AGATACCC the value was 0.0127 E-score; for CAACGAGG, -0.203 E-score; for AACCACGC, -0.00353 E-score.
As for GGCCACAA, the binding signal is -0.145 E-score.
TGCAGGCA: the binding signal is -0.092 E-score.
TAACGTGA displayed a binding signal of 0.0823 E-score.
Take CAAAACAG: the binding signal is 0.0797 E-score.
As for GATTCCCA, the binding signal is -0.0135 E-score.
GATGTTGC: the binding signal came out at 0.0134 E-score.
AACGTCCG yielded a binding signal of -0.14 E-score.
For CACAGGGA, the binding signal was -0.179 E-score.
ATCTCGTA registered a binding signal of 0.144 E-score.
In turn, ACATGCGC had a binding signal of -0.215 E-score.
Take CAAAACAA: the binding signal was -0.114 E-score.
GTTATTCA: the binding signal was found to be 0.0398 E-score.
For the sequence AAGCAAAG, the binding signal is -0.0562 E-score.
For the sequence ATTAAGAG, the binding signal came out at 0.0989 E-score.
For GGGTCCCA, the binding signal was -0.347 E-score.
For the sequence AGACGTTG, the binding signal is -0.292 E-score.
Consider AGGCCCGC, for which the binding signal is -0.175 E-score.
Sequence GGGAGTTA returned a binding signal of -0.018 E-score.
As to AGGCGCTG, the binding signal was -0.161 E-score.
GATAGCTA: the binding signal turned out to be 0.35 E-score.
Take AGGTAGTG: the binding signal turned out to be 0.0916 E-score.
Sequence AGACAATG gave a binding signal of -0.0492 E-score.
For CACGATTC the value was 0.0284 E-score.
For TTTACAAA the value was 0.3 E-score.
Next, ACCCGGTA: 0.283 E-score.
Consider ACAGTCTC, for which the binding signal is -0.103 E-score.
With GGGATATA, the binding signal came out at 0.221 E-score.
AGTGGATC yielded a binding signal of 0.0173 E-score.
Sequence AGGTTCAT displayed a binding signal of -0.0409 E-score.
Regarding GTATAGTA, the binding signal is 0.316 E-score.
Sequence GCTAGCGA showed a binding signal of -0.14 E-score.
Regarding GTAGAGAC, the binding signal came to 0.148 E-score.
Consider CTGCGGAA, for which the binding signal was -0.0612 E-score.
For TCGCAACA the value was -0.0642 E-score; for AGTTCTTC, 0.108 E-score.
Regarding ATTTATTG, the binding signal stood at 0.348 E-score.
The sequence AACATCCT showed a binding signal of 0.0603 E-score.
The sequence TAGCGACA displayed a binding signal of 0.06 E-score.
As to CCGCGAAC, the binding signal was -0.108 E-score.
Consider ATTTAACG, for which the binding signal was found to be 0.119 E-score.
As to CGTCTTAG, the binding signal is -0.153 E-score.
For CACTCTGA the value was -0.192 E-score; for TGTTCTAA, 0.14 E-score.
The sequence GATGTACC yielded a binding signal of 0.0515 E-score.
Regarding GACGTTAC, the binding signal was 0.0523 E-score.
CCAGAGAG: the binding signal is -0.238 E-score.
GACCGATC returned a binding signal of -0.0838 E-score.
Consider TAGTTACA, for which the binding signal was determined as 0.349 E-score.
Regarding CACTAACA, the binding signal came out at 0.166 E-score.
As to CCCGGCAC, the binding signal was -0.109 E-score.
Sequence CCACCGGC displayed a binding signal of -0.237 E-score.
As to CACGAGAA, the binding signal is -0.194 E-score.
As for TAAGACTA, the binding signal worked out at 0.101 E-score.
Turning to ATGTAATC, the binding signal worked out at 0.0219 E-score.
As for GGGACCAA, the binding signal is -0.313 E-score.
Regarding AGCGCACT, the binding signal was -0.17 E-score.
The sequence ACCGAACT gave a binding signal of 0.181 E-score.
Next, CCGCCTCC: -0.353 E-score.
AGTTTTTG came in with a binding signal of 0.132 E-score.
Take CATGCCGG: the binding signal was -0.273 E-score.
CATAAACC showed a binding signal of 0.11 E-score.
Regarding CCAAGTCC, the binding signal was -0.24 E-score.
In the case of ACTGACAG, the binding signal was determined as 0.0295 E-score.
TAACAAAA came in with a binding signal of 0.181 E-score.
Next, GATGATAC: 0.1 E-score; AAGATGCT: -0.108 E-score.
In turn, ATCCGAGA registered a binding signal of 0.141 E-score.
In turn, GCCAGCCC yielded a binding signal of -0.31 E-score.
ACCGAAGG yielded a binding signal of -0.228 E-score.
In turn, ACGCCACA gave a binding signal of -0.0467 E-score.
The sequence ATTCTATA gave a binding signal of 0.247 E-score.
In turn, ACCTATCC returned a binding signal of 0.0402 E-score.
Turning to CACGTTAC, the binding signal was 0.195 E-score.
For CAACATAG the value was 0.0718 E-score; for CTCTCGCC, -0.343 E-score.
For CTGTACAC, the binding signal was -0.0342 E-score.
Next, ACCAGTGC: -0.175 E-score; CGATATGA: -0.103 E-score.
Turning to AAGGAAGG, the binding signal was -0.306 E-score.
Regarding ATTCTTGA, the binding signal is -0.0119 E-score.
Next, CATCTATA: 0.199 E-score; GATGCAAC: 0.0442 E-score.
CCAGACAG had a binding signal of -0.312 E-score.
For CACATAGC the value was 0.177 E-score; for GAGAGCCC, -0.474 E-score.
With AACAAGTC, the binding signal was -0.0897 E-score.
The sequence AGATCGTG displayed a binding signal of 0.0263 E-score.
The sequence CCTTGTAA came in with a binding signal of -0.0485 E-score.
For TGTGCACA the value was -0.0141 E-score; for GTAGGATA, 0.103 E-score; for AAGATGTA, 0.23 E-score.
GCCCGGTA came in with a binding signal of -0.203 E-score.
Next, ACTCGCCA: -0.0788 E-score; ATTCCCCC: -0.278 E-score; AGTGCTAC: 0.156 E-score.
In turn, AAATAGTC registered a binding signal of 0.119 E-score.
For CAAAACCG the value was -0.264 E-score; for CCATCATA, 0.112 E-score; for AATTTAAC, 0.207 E-score.
In turn, GAGATATA showed a binding signal of 0.157 E-score.
Next, ATCGAGGG: -0.0869 E-score; CAGGCATC: -0.162 E-score; CTAGTGAG: -0.0281 E-score.
Take ATGGGATA: the binding signal amounted to 0.182 E-score.
For CTACAGAG the value was 0.0344 E-score.
For TGACCCCA, the binding signal is -0.335 E-score.
For TGCTATAA the value was 0.304 E-score.
Consider AAGCTGCT, for which the binding signal is -0.115 E-score.
Sequence CCGTAACC returned a binding signal of -0.0179 E-score.
In the case of CCGCAAAC, the binding signal was -0.164 E-score.
For GCATTTCA the value was -0.00805 E-score.
Next, CAGACGAA: -0.0357 E-score.
For GCCGGAGA, the binding signal was -0.257 E-score.
For the sequence GAACAACA, the binding signal is -0.0557 E-score.
Sequence ACTCGTTA registered a binding signal of 0.299 E-score.
As for AGCCAACT, the binding signal was -0.0605 E-score.
For CACACCGA, the binding signal was determined as 0.0585 E-score.
CGACGATC registered a binding signal of -0.127 E-score.
Consider CGGGGATC, for which the binding signal is -0.182 E-score.
With GCAAAGAA, the binding signal stood at 0.0419 E-score.
For AACTTGAC the value was 0.054 E-score; for ACCCTCTG, -0.158 E-score.
Next, CAGGCTCC: -0.379 E-score; TAGACCCA: -0.107 E-score.
Sequence CGAGTGTC gave a binding signal of 0.113 E-score.
ATACGGGA showed a binding signal of -0.0244 E-score.
In turn, AACCAGGG yielded a binding signal of -0.249 E-score.
For the sequence AGGCGCCT, the binding signal was -0.319 E-score.
Regarding AACTTTTG, the binding signal amounted to 0.153 E-score.
As for AGACTAAG, the binding signal was -0.0453 E-score.
On to AGTTCGGA, for which the binding signal worked out at 0.162 E-score.
For the sequence AACGCCCC, the binding signal is -0.349 E-score.
In the case of TCCAATCA, the binding signal was -0.035 E-score.
For AGACAAGC the value was -0.0419 E-score.
Sequence AAGTGACG registered a binding signal of 0.0469 E-score.
AATACTGC gave a binding signal of 0.188 E-score.
On to CAAGTTAG, for which the binding signal is 0.189 E-score.
CCGCGTAG had a binding signal of 0.0119 E-score.
Next, ACTGCCAG: -0.178 E-score; ATGAGGCA: -0.296 E-score; AAGTTTCG: 0.286 E-score.
As for CCTTACAG, the binding signal turned out to be 0.0844 E-score.
For CATGTTAG the value was 0.0942 E-score; for ACGATGGC, -0.0658 E-score; for AATAGATT, 0.388 E-score.
CACACCTA came in with a binding signal of 0.193 E-score.
For ACACTACA the value was 0.276 E-score; for TCATAAGA, 0.256 E-score; for CCAAAACC, -0.268 E-score.
ACGCCAAG showed a binding signal of 0.0853 E-score.
GTACGGAA showed a binding signal of 0.219 E-score.
The sequence AGTGGTTC displayed a binding signal of -0.00325 E-score.
For AACCACGG the value was 0.0182 E-score; for AGCTGCTC, -0.187 E-score; for CGATTATA, 0.215 E-score.
For the sequence AATACAGG, the binding signal came to 0.029 E-score.
In turn, AGGATTTA yielded a binding signal of 0.0716 E-score.
Regarding GAAATCGA, the binding signal was -0.0156 E-score.
Turning to ACAGATAG, the binding signal was found to be 0.238 E-score.
Consider ATTTACAC, for which the binding signal is 0.23 E-score.
For the sequence AAACTAGT, the binding signal was found to be 0.459 E-score.
ATGGGACC returned a binding signal of -0.261 E-score.
Next, CTCATCGC: -0.03 E-score; ACGTCGTC: -0.169 E-score; GACTTTAC: -0.0941 E-score.
With AGAAGCCG, the binding signal amounted to 0.125 E-score.
Next, GGAACGAA: -0.131 E-score.
For the sequence ATGATTAC, the binding signal worked out at 0.0788 E-score.
CGGGCCCA: the binding signal is -0.265 E-score.
Next, AACCATAC: 0.147 E-score.
Regarding CGACCACA, the binding signal is -0.0763 E-score.
The sequence AAATGCAG displayed a binding signal of -0.183 E-score.
CCCGACAA gave a binding signal of -0.243 E-score.
For AAATCACG the value was 0.21 E-score; for AGAAGTAC, 0.195 E-score; for ATTTTGGA, 0.0687 E-score.
Sequence ATTGGTTC returned a binding signal of -0.0336 E-score.
In the case of AAGAGTAT, the binding signal came to 0.0908 E-score.
In the case of ATACCGGC, the binding signal turned out to be 0.0494 E-score.
As for AACATTGA, the binding signal stood at 0.0541 E-score.
As for CCCAGGAA, the binding signal is -0.0394 E-score.
With ATCTGCGC, the binding signal was determined as 0.0719 E-score.
In turn, CTCTCTCC had a binding signal of -0.196 E-score.
Sequence ATCGAGTG returned a binding signal of 0.124 E-score.
Next, AGGCAATC: -0.0764 E-score; ATAGATTG: 0.316 E-score; ACGATAAC: 0.169 E-score.
Turning to CGACTAAC, the binding signal is 0.0783 E-score.
On to CGGCTGCA, for which the binding signal was -0.347 E-score.
With AGCAGCCC, the binding signal was -0.246 E-score.
For AAGGTATG, the binding signal was 0.0476 E-score.
ACCCCGCA: the binding signal is -0.369 E-score.
In the case of AGACTGCA, the binding signal was -0.0749 E-score.
Take GCGCGATA: the binding signal came to 0.203 E-score.
On to AGATCACG, for which the binding signal is -0.0727 E-score.
The sequence CAGTTAGC came in with a binding signal of 0.184 E-score.
In turn, AAGCTAGT came in with a binding signal of 0.3 E-score.
In turn, TACATTCA came in with a binding signal of 0.313 E-score.
CAGGTCAG: the binding signal was -0.0398 E-score.
AATTTTCG showed a binding signal of 0.139 E-score.
Consider ATAAGGTG, for which the binding signal stood at 0.108 E-score.
